# From the supplement of paper PMC8728848
# The other results are listed elsewhere or left out.
# Assays:
# Assay in all cases: glycan array binding signal (z-score within array); higher = stronger binding
# Settings in all cases: glycan notation: IUPAC condensed, linker removed
# [1] = target: Gal(b1-4)GlcNAc(b1-2)[Gal(b1-4)GlcNAc(b1-6)]Man(a1-6)[GlcNAc(b1-4)][Gal(b1-4)GlcNAc(b1-2)Man(a1-3)]Man(b1-4)GlcNAc(b1-4)GlcNAc
# Procedure, shortened: (§1)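 The Consortium for Functional Glycomics database supplied 3228 glycan arrays, of which those lacking an available protein sequence were dropped. The binding signal, a within-array Z-score, was averaged across arrays of the same protein sequence and across linkers. Negative scores can be read as non-binding.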
# [2] = target: Gal(b1-4)GlcNAc(b1-2)[Gal(b1-4)GlcNAc(b1-6)]Man(a1-6)[GlcNAc(b1-4)][Gal(b1-4)GlcNAc(b1-2)[Gal(b1-4)GlcNAc(b1-4)]Man(a1-3)]Man(b1-4)GlcNAc(b1-4)[Fuc(a1-6)]GlcNAc
# Procedure, shortened: as §1
# [3] = target: Gal(b1-4)GlcNAc(b1-3)Gal(b1-3)GalNAc
# Procedure, shortened: as §1
# [4] = target: Gal(b1-4)GlcNAc(b1-3)Gal(b1-3)GlcNAc
# Procedure, shortened: as §1
# [5] = target: Gal(b1-4)GlcNAc(b1-3)Gal(b1-4)Glc
# Procedure, shortened: as §1
# [6] = target: Gal(b1-4)GlcNAc(b1-3)Gal(b1-4)GlcNAc
# Procedure, shortened: as §1
# [7] = target: Gal(b1-4)GlcNAc(b1-3)Gal(b1-4)GlcNAc(b1-2)Man(a1-3)[Gal(b1-4)GlcNAc(b1-3)Gal(b1-4)GlcNAc(b1-2)Man(a1-6)]Man(b1-4)GlcNAc(b1-4)GlcNAc
# Procedure, shortened: as §1
# [8] = target: Gal(b1-4)GlcNAc(b1-3)Gal(b1-4)GlcNAc(b1-2)Man(a1-3)[Gal(b1-4)GlcNAc(b1-3)Gal(b1-4)GlcNAc(b1-2)Man(a1-6)]Man(b1-4)GlcNAc(b1-4)[Fuc(a1-6)]GlcNAc
# Procedure, shortened: as §1
# [9] = target: Gal(b1-4)GlcNAc(b1-3)Gal(b1-4)GlcNAc(b1-2)[Gal(b1-4)GlcNAc(b1-3)Gal(b1-4)GlcNAc(b1-6)]Man(a1-6)[Gal(b1-4)GlcNAc(b1-3)Gal(b1-4)GlcNAc(b1-2)Man(a1-3)]Man(b1-4)GlcNAc(b1-4)GlcNAc
# Procedure, shortened: as §1
# [10] = target: Gal(b1-4)GlcNAc(b1-3)Gal(b1-4)GlcNAc(b1-2)[Gal(b1-4)GlcNAc(b1-3)Gal(b1-4)GlcNAc(b1-6)]Man(a1-6)[Gal(b1-4)GlcNAc(b1-3)Gal(b1-4)GlcNAc(b1-2)Man(a1-3)]Man(b1-4)GlcNAc(b1-4)[Fuc(a1-6)]GlcNAc
# Procedure, shortened: as §1
# [11] = target: Gal(b1-4)GlcNAc(b1-3)Gal(b1-4)GlcNAc(b1-3)Gal(b1-4)GlcNAc
# Procedure, shortened: as §1
# [12] = target: Gal(b1-4)GlcNAc(b1-3)Gal(b1-4)GlcNAc(b1-3)Gal(b1-4)GlcNAc(b1-2)Man(a1-3)[Gal(b1-4)GlcNAc(b1-3)Gal(b1-4)GlcNAc(b1-3)Gal(b1-4)GlcNAc(b1-2)Man(a1-6)]Man(b1-4)GlcNAc(b1-4)GlcNAc
# Procedure, shortened: as §1
# [13] = target: Gal(b1-4)GlcNAc(b1-3)Gal(b1-4)GlcNAc(b1-3)Gal(b1-4)GlcNAc(b1-2)Man(a1-3)[Gal(b1-4)GlcNAc(b1-3)Gal(b1-4)GlcNAc(b1-3)Gal(b1-4)GlcNAc(b1-2)Man(a1-6)]Man(b1-4)GlcNAc(b1-4)[Fuc(a1-6)]GlcNAc
# Procedure, shortened: as §1
# [14] = target: Gal(b1-4)GlcNAc(b1-3)Gal(b1-4)GlcNAc(b1-3)Gal(b1-4)GlcNAc(b1-2)[Gal(b1-4)GlcNAc(b1-3)Gal(b1-4)GlcNAc(b1-3)Gal(b1-4)GlcNAc(b1-6)]Man(a1-6)[Gal(b1-4)GlcNAc(b1-3)Gal(b1-4)GlcNAc(b1-3)Gal(b1-4)GlcNAc(b1-2)Man(a1-3)]Man(b1-4)GlcNAc(b1-4)[Fuc(a1-6)]GlcNAc
# Procedure, shortened: as §1
# [15] = target: Gal(b1-4)GlcNAc(b1-3)Gal(b1-4)GlcNAc(b1-3)Gal(b1-4)GlcNAc(b1-3)Gal(b1-4)GlcNAc(b1-2)Man(a1-3)[Gal(b1-4)GlcNAc(b1-3)Gal(b1-4)GlcNAc(b1-3)Gal(b1-4)GlcNAc(b1-3)Gal(b1-4)GlcNAc(b1-2)Man(a1-6)]Man(b1-4)GlcNAc(b1-4)GlcNAc
# Procedure, shortened: as §1
# [16] = target: Gal(b1-4)GlcNAc(b1-3)Gal(b1-4)GlcNAc(b1-3)Gal(b1-4)GlcNAc(b1-3)Gal(b1-4)GlcNAc(b1-2)Man(a1-3)[Gal(b1-4)GlcNAc(b1-3)Gal(b1-4)GlcNAc(b1-3)Gal(b1-4)GlcNAc(b1-3)Gal(b1-4)GlcNAc(b1-2)Man(a1-6)]Man(b1-4)GlcNAc(b1-4)[Fuc(a1-6)]GlcNAc
# Procedure, shortened: as §1
# [17] = target: Gal(b1-4)GlcNAc(b1-3)Gal(b1-4)GlcNAc(b1-3)Gal(b1-4)GlcNAc(b1-3)Gal(b1-4)GlcNAc(b1-2)[Gal(b1-4)GlcNAc(b1-3)Gal(b1-4)GlcNAc(b1-3)Gal(b1-4)GlcNAc(b1-3)Gal(b1-4)GlcNAc(b1-6)]Man(a1-6)[Gal(b1-4)GlcNAc(b1-3)Gal(b1-4)GlcNAc(b1-3)Gal(b1-4)GlcNAc(b1-3)Gal(b1-4)GlcNAc(b1-2)Man(a1-3)]Man(b1-4)GlcNAc(b1-4)[Fuc(a1-6)]GlcNAc
# Procedure, shortened: as §1
# [18] = target: Gal(b1-4)GlcNAc(b1-3)Gal(b1-4)GlcNAc(b1-3)Gal(b1-4)GlcNAc(b1-3)Gal(b1-4)GlcNAc(b1-3)Gal(b1-4)GlcNAc(b1-2)Man(a1-3)[Gal(b1-4)GlcNAc(b1-3)Gal(b1-4)GlcNAc(b1-3)Gal(b1-4)GlcNAc(b1-3)Gal(b1-4)GlcNAc(b1-3)Gal(b1-4)GlcNAc(b1-2)Man(a1-6)]Man(b1-4)GlcNAc(b1-4)GlcNAc
# Procedure, shortened: as §1
# [19] = target: Gal(b1-4)GlcNAc(b1-3)Gal(b1-4)GlcNAc(b1-3)Gal(b1-4)GlcNAc(b1-3)Gal(b1-4)GlcNAc(b1-3)Gal(b1-4)GlcNAc(b1-2)Man(a1-3)[Gal(b1-4)GlcNAc(b1-3)Gal(b1-4)GlcNAc(b1-3)Gal(b1-4)GlcNAc(b1-3)Gal(b1-4)GlcNAc(b1-3)Gal(b1-4)GlcNAc(b1-2)Man(a1-6)]Man(b1-4)GlcNAc(b1-4)[Fuc(a1-6)]GlcNAc
# Procedure, shortened: as §1
# [20] = target: Gal(b1-4)GlcNAc(b1-3)Gal(b1-4)GlcNAc(b1-3)Gal(b1-4)GlcNAc(b1-3)Gal(b1-4)GlcNAc(b1-3)Gal(b1-4)GlcNAc(b1-2)[Gal(b1-4)GlcNAc(b1-3)Gal(b1-4)GlcNAc(b1-3)Gal(b1-4)GlcNAc(b1-3)Gal(b1-4)GlcNAc(b1-3)Gal(b1-4)GlcNAc(b1-6)]Man(a1-6)[Gal(b1-4)GlcNAc(b1-3)Gal(b1-4)GlcNAc(b1-3)Gal(b1-4)GlcNAc(b1-3)Gal(b1-4)GlcNAc(b1-3)Gal(b1-4)GlcNAc(b1-2)Man(a1-3)]Man(b1-4)GlcNAc(b1-4)[Fuc(a1-6)]GlcNAc
# Procedure, shortened: as §1
# [21] = target: Gal(b1-4)GlcNAc(b1-3)Gal(b1-4)GlcNAc(b1-3)Gal(b1-4)GlcNAc(b1-3)Gal(b1-4)GlcNAc(b1-3)Gal(b1-4)GlcNAc(b1-3)Gal(b1-4)GlcNAc(b1-2)Man(a1-3)[Gal(b1-4)GlcNAc(b1-3)Gal(b1-4)GlcNAc(b1-3)Gal(b1-4)GlcNAc(b1-3)Gal(b1-4)GlcNAc(b1-3)Gal(b1-4)GlcNAc(b1-3)Gal(b1-4)GlcNAc(b1-2)Man(a1-6)]Man(b1-4)GlcNAc(b1-4)GlcNAc
# Procedure, shortened: as §1
# [22] = target: Gal(b1-4)GlcNAc(b1-3)Gal(b1-4)GlcNAc(b1-3)GalNAc
# Procedure, shortened: as §1
# [23] = target: Gal(b1-4)GlcNAc(b1-3)Gal(b1-4)GlcNAc(b1-3)[Gal(b1-4)GlcNAc(b1-3)Gal(b1-4)GlcNAc(b1-6)]GalNAc
# Procedure, shortened: as §1
binder,measurement,setting,value
Epa13 (Candida glabrata) (protein) MGSSHHHHHHSSGLVPRGSHMASDSSENGYAHGCSPSIRAKLKPGLSMEIYSYALRPTDDHCWDSAYLDPMFPRTGYLTHKLLGKAEGIIGPLNFLAKNPACIPAVSTLPLAFHFPKPFTITNFTMLLYGYLSPKKTGKYTFKLLADDLLLMNFGADNAFDCCSHDATKDNIGEYVAYSVWPGVNKNVTVYLESGIYYPLRLFFNNRDAIAQLDFAYYFNDSPIRQTDFSGMFFSIPDSVKCPANI,glycan array binding signal (z-score),[1],-0.462
same,glycan array binding signal (z-score),[2],-0.476
same,glycan array binding signal (z-score),[3],-0.306
same,glycan array binding signal (z-score),[4],-0.255
same,glycan array binding signal (z-score),[5],0.086
same,glycan array binding signal (z-score),[6],-0.291
same,glycan array binding signal (z-score),[7],0.332
same,glycan array binding signal (z-score),[8],0.852
same,glycan array binding signal (z-score),[9],0.359
same,glycan array binding signal (z-score),[10],0.712
same,glycan array binding signal (z-score),[11],-0.272
same,glycan array binding signal (z-score),[12],1.18
same,glycan array binding signal (z-score),[13],0.086
same,glycan array binding signal (z-score),[14],0.514
same,glycan array binding signal (z-score),[15],0.32
same,glycan array binding signal (z-score),[16],0.006
same,glycan array binding signal (z-score),[17],-0.079
same,glycan array binding signal (z-score),[18],-0.037
same,glycan array binding signal (z-score),[19],-0.226
same,glycan array binding signal (z-score),[20],0.054
same,glycan array binding signal (z-score),[21],-0.26
same,glycan array binding signal (z-score),[22],0.131
same,glycan array binding signal (z-score),[23],0.394
